Experimental data from a collection of fitness landscapes (doi:10.1126/science.1257360).
The list shows a part of the results.

B1: PhoQ; a variant is named by its letters at X, in order, P23837 (parent)
chain: MKKLLRLFFPLSLRVRFLLATAAVVLVLSLAYGMVALIGYSVSFDKTTFRLLRGESNLFYTLAKWENNKLHVELPENIDKQSPTMTLIYDENGQLLWAQRDVPWLMKMIQPDWLKSNGFHEIEADVNDTSLLLSGDHSIQQQLQEVREDDDDAEMTHSVAVNVYPATSRMPKLTIVVVDTIPVELKSSYMVWSWFIYVLSANLLLVIPLLWVAAWWSLRPIEALAKEVRELEEHNRELLNPATTRELTSLVRNLNRLLKSERERYDKYRTTLTDLTHSLKTPLXXLQXXLRSLRSEKMSVSDAEPVMLEQISRISQQIGYYLHRASMRGGTLLSRELHPVAPLLDNLTSALNKVYQRKGVNISLDISPEISFVGEQNDFVEVMGNVLDNACKYCLEFVEISARQTDEHLYIVVEDDGPGIPLSKREVIFDRGQRVDTLRPGQGVGLAVAREITEQYEGKIVAGESMLGGARMEVIFGRQHSAPKDE

Variants of: B1
Test: enrichment ratio after two sorts for PhoP signalling (ratio (wild type AVST 3.29)); higher = more functional
Conditions: with PhoP (E. coli)

Variant | enrichment ratio
HGTD | ≤ 0.25
FFTP | ≤ 0.25
CLFF | ≤ 0.25
IYPR | ≤ 0.25
GYSF | ≤ 0.25
MMAW | ≤ 0.25
GYPK | ≤ 0.25
MVHA | ≤ 0.25
QGRK | ≤ 0.25
HCCK | ≤ 0.25
EVLK | ≤ 0.25
NSLV | 2.78
DMCK | ≤ 0.25
YHQV | ≤ 0.25
ATFA | ≤ 0.25
AIFE | ≤ 0.25
LSMC | ≤ 0.25
RAWP | ≤ 0.25
LVAY | ≤ 0.25
GCRC | ≤ 0.25
GNQR | ≤ 0.25
PWTP | ≤ 0.25
WNLC | ≤ 0.25
RHEA | ≤ 0.25
VVMI | ≤ 0.25
TLQM | 15.4

Variant | enrichment ratio
KEVR | ≤ 0.25
MNKR | ≤ 0.25
MCNH | 0.253
PCHN | ≤ 0.25
EYIN | ≤ 0.25
SGQD | ≤ 0.25
PVKM | ≤ 0.25
FWVM | ≤ 0.25
KVRH | ≤ 0.25
PSDP | ≤ 0.25
GNKG | ≤ 0.25
AAFS | ≤ 0.25
QFMG | ≤ 0.25
NDIH | ≤ 0.25
NFHQ | ≤ 0.25
NGEK | ≤ 0.25
KDMK | ≤ 0.25
SGGP | ≤ 0.25
SPAN | ≤ 0.25
YLYA | ≤ 0.25
TACY | 6.15
PGMW | ≤ 0.25
WHTF | ≤ 0.25
QLWI | ≤ 0.25
NWTT | ≤ 0.25
NEFT | ≤ 0.25

Variant | enrichment ratio
DHWA | ≤ 0.25
WIHF | ≤ 0.25
GIHT | ≤ 0.25
ENKY | ≤ 0.25
GVCR | 7.8
AYSF | ≤ 0.25
PFNI | ≤ 0.25
KFFC | ≤ 0.25
THSQ | 1.73
YTPF | ≤ 0.25
NIYM | ≤ 0.25
CILL | ≤ 0.25
SYQD | ≤ 0.25
SPTP | ≤ 0.25
PNVW | ≤ 0.25
LQWF | ≤ 0.25
IQCC | ≤ 0.25
DYYI | ≤ 0.25
WINC | ≤ 0.25
NRQQ | ≤ 0.25
QWFL | ≤ 0.25
SYKN | ≤ 0.25
SSYV | 1.11
PEFW | ≤ 0.25
VWGH | ≤ 0.25
YFRR | 0.949

Variant | enrichment ratio
VNAE | ≤ 0.25
VIFK | ≤ 0.25
VRWN | ≤ 0.25
IHGW | ≤ 0.25
FTPR | ≤ 0.25
VSHP | ≤ 0.25
ILNN | ≤ 0.25
LDDA | ≤ 0.25
RVGH | ≤ 0.25
EGCR | ≤ 0.25
FTRC | ≤ 0.25
VCNS | ≤ 0.25
YSNM | ≤ 0.25
QWPI | ≤ 0.25
KVTC | ≤ 0.25
WPEI | ≤ 0.25
GMED | ≤ 0.25
VHVV | ≤ 0.25
LQDP | ≤ 0.25
NWAA | ≤ 0.25
KDGH | ≤ 0.25
PQKW | ≤ 0.25
IKME | ≤ 0.25
AEIY | 14.8
DSHN | ≤ 0.25
HDAA | ≤ 0.25

Variant | enrichment ratio
KILK | ≤ 0.25
AHVM | 1.65
PRLQ | ≤ 0.25
YNNG | ≤ 0.25
LMPT | ≤ 0.25
TYMK | ≤ 0.25
INKF | ≤ 0.25
IWDM | ≤ 0.25
MQKV | ≤ 0.25
KDYC | ≤ 0.25
AQHE | ≤ 0.25
DWID | ≤ 0.25
NNPF | ≤ 0.25
AMYM | ≤ 0.25
VVIT | ≤ 0.25
HGMM | ≤ 0.25
MIMK | ≤ 0.25
HPGI | ≤ 0.25
FEVA | ≤ 0.25
YMNQ | ≤ 0.25
NHFD | ≤ 0.25
HLRT | ≤ 0.25
FGNM | ≤ 0.25
RKFM | ≤ 0.25
LSYS | ≤ 0.25
HNNK | ≤ 0.25

Variant | enrichment ratio
ISSE | ≤ 0.25
EHTW | ≤ 0.25
FNQS | ≤ 0.25
TPFF | 0.583
PLEW | ≤ 0.25
SNNQ | 4.35
AIYY | ≤ 0.25
KKAH | ≤ 0.25
AARG | ≤ 0.25
GYQA | ≤ 0.25
YPHQ | ≤ 0.25
SYPG | ≤ 0.25
TFIS | ≤ 0.25
AGID | ≤ 0.25
LADW | ≤ 0.25
GMHM | ≤ 0.25
SRMK | ≤ 0.25
HHLG | ≤ 0.25
FEQH | ≤ 0.25
FQWN | ≤ 0.25
WCNW | ≤ 0.25
TMIL | ≤ 0.25
ILRP | ≤ 0.25
